Results on 56 variants are retold here after the RNAGym collection of RNA variant scans (doi:10.7554/elife.90254).

The source gives no read counts; variants with many changes may rest on few reads.

To fix the notation:
B1: LINE1-mini (parent)
chain: GGCAGAGCUCAACACAGCGUGGCAAAGUGGCUGUGGCUAGACUGCC

Variants of B1 are the subject of the series. The experiment in a line: self-cleavage, relative activity (ratio to wild type); higher = more cleavage; in vitro, sequencing; the parent is a self-cleaving ribozyme.
Regarding GGCAGAGCACAACACAGCGUGGCAAAGUGGCUGAGGGUAGACUGCC [U9A U34A C37G], the self-cleavage was found to be 0. With GGCAGAGCACAACACAGCGAGGCAAAGUGGUUGUGGCUAGACUGCC [U9A U20A C31U], the self-cleavage is 0.02. Next, GGCAGAGCACAACACAGCGUGGCAAAGUGGCUGUGUUUAGACUGCC [U9A G36U C37U]: 0.01. The figure for GGCAGAGCCCUACACAGCGUGGCAAAGUGGCUGUGGUUAGACUGCC [U9C A11U C37U] is 0.02; for GGCAGAGCACAACACAGCGUGGCAAAGGGGCUGUGGCUCAACUGCC [U9A U28G A39C G40A] it is 0.04.

Regarding GGCAGAGCCCAACACUGCGUGGCAAAGUGGUUCAGGCUAGACUGCC [U9C A16U C31U G33C U34A], the self-cleavage was 0. As to GGCAGAGCACAACACAGCGCGGCAACGUGGCUGUGGCUAGACUGCC [U9A U20C A26C], the self-cleavage was found to be 0.03. On to GGCAGAGCCCAACUCAGCGUGGCAAAGUGGCUGUGGCUCGACUGCC [U9C A14U A39C], for which the self-cleavage was 0.07.

Consider GGCAGAGCCCUACACAGCGUGGCAAAGCGGAUGUGGCUAGACUACC [U9C A11U U28C C31A G44A], for which the self-cleavage was determined as 0.01. Next, GGCAGAGCCCAACACAGCGUGGCAAGGUGACUGUGGCUAGACUGCC [U9C A26G G30A]: 0.04. Take GGCAGAGCCCUACUCAGCGUGGCAAAGUGGCUUUGGCUAGACUGCC [U9C A11U A14U G33U]: the self-cleavage stood at 0.02. The figure for GGCAGAGCCCAACACAGCGUGGCAUAGUGGCUGUGGCUAGAGUGAC [U9C A25U C42G C45A] is 0; for GGCAGAGCCCAACACAGCGUGGCAACGUGGCGGUGGCUAGACUGCC [U9C A26C U32G] it is 0.04. The figure for GGCAGAGCCCAACUCAGCGUAGCAAAGUGACUGUAGUUAGACUUCA [U9C A14U G21A G30A G35A C37U G44U C46A] is 0.04. With GGCAGAGCCCAACACUGCGUGGCGAAGUGGCUGUGGCUGGACUACC [U9C A16U A24G A39G G44A], the self-cleavage amounted to 0.03. The figure for GGCAGAGCCCAACACCGCGGGACAAAGUGACUGCGGCUAGACAGCC [U9C A16C U20G G22A G30A U34C U43A] is 0; for GGCAGAGCCCCCCACAGCGUGGCAAAGUGGCUGAGGCGAGACUGCC [U9C A11C A12C U34A U38G] it is 0.01. Take GGCAGAGCCAAUCACAGCGUGGCAAAGUGGCUGUGGCUAGACUGCC [U9C C10A A12U]: the self-cleavage is 0.02. The figure for GGCAGAGCCCAGCACAGCGUGGCAAAGUGGCUCUGGCUAGACUGCC [U9C A12G G33C] is 0.01; for GGCAGAGCACAACACAGCGCAGCAAAGUGUCUGUGGUUAGACUGCC [U9A U20C G21A G30U C37U] it is 0.03; for GGCAGAGCACAACACAGCGUGGCAAAGUGGCUGAGGCUAGACUGGC [U9A U34A C45G] it is 0.29. For the variant GGCAGAGCCCAACACUGUGUGGCAAAGUGGCUGUGGCUAGACUGCC [U9C A16U C18U], the self-cleavage was 0.02. In the case of GGCAGAGCACAACACAGCGUGGCAAAGGGGCUGUGUCUAGACUACC [U9A U28G G36U G44A], the self-cleavage was 0.13. The figure for GGCAGAGCCCAACACAGCGUGGCAGAGUGUCUGUGGCUAGACUGCC [U9C A25G G30U] is 0.05; for GGCAGAGCACAACACAGCGUGGCAAAGCGCCUGUGCCAAGACUGCC [U9A U28C G30C G36C U38A] it is 0.04; for GGCAGAGCCCAUCACAGUGUGGCAAAGUGGCUGUGGCGAGACUGCC [U9C A12U C18U U38G] it is 0.02. For GGCAGAGCCCAACCCAGCGUAGCAAAGUGGCUGUGGCUAGACUACC [U9C A14C G21A G44A], the self-cleavage was found to be 0.02.

Take GGCAGAGCACAACACAGCGGGGCAAAGUGGCUGUGGUUAGACUGCG [U9A U20G C37U C46G]: the self-cleavage came out at 0.06. Next, GGCAGAGCCCAUCACAGCGUGGCAAAGUGGUUGUGGCUACUCUGCC [U9C A12U C31U G40C A41U]: 0.06; GGCAGAGCCCAACGCAGCGUGCCAAAGUGGCUGUGACUACACUGCC [U9C A14G G22C G36A G40C]: 0.01; GGCAGAGCCCAACGCAGCGUGGCAAAGUGGCUUUGGCUAGAGUGCC [U9C A14G G33U C42G]: 0.03. Regarding GGCAGAGCACAACACAGCGUGGCAAAGUGGCUGGCGCUAGACUGCC [U9A U34G G35C], the self-cleavage came to 0.06.

For the variant GGCAGAGCACAACACAGCGUGGCAAAGGCGCUGUGGCUAGACUGCC [U9A U28G G29C], the self-cleavage is 0.01. For the variant GGCAGAGCCCAACACGGCGUGGCUAAGUGGCUGUAGCUAGACUGCC [U9C A16G A24U G35A], the self-cleavage turned out to be 0.02. For the variant GGCAGAGCCCAACACAGCGUGGCACAGUGACUGUGGCUAGACUGCG [U9C A25C G30A C46G], the self-cleavage was determined as 0.02.

In the case of GGCAGAGCCCCACACAGCGUGGCAAAGUGGUUGUGGCUAGACUGCC [U9C A11C C31U], the self-cleavage worked out at 0.05. On to GGCAGAGCCCAACACAGCGUGGCGAAGUGGCUGUGGCUAGAAUGCC [U9C A24G C42A], for which the self-cleavage was 0.02.

For the variant GGCAGAGCCCCACACAGCGAGGGAAAGUGGCUGUGGCUAGACUGCC [U9C A11C U20A C23G], the self-cleavage was 0.02.

Take GGCAGAGCCGGACUCAGCGUGGCAAAGUGGUUGUGGCUAGACUGCC [U9C C10G A11G A14U C31U]: the self-cleavage was 0.02. The figure for GGCAGAGCCGGACACAGGGUGGCAAGGUGGCUGUGGCUAGCCUGCC [U9C C10G A11G C18G A26G A41C] is 0. Consider GGCAGAGCACAACACAGCGGGGCAAAGUGGCUGUGGCUCGACUCCC [U9A U20G A39C G44C], for which the self-cleavage amounted to 0.02. Next, GGCAGAGCCCAACACAGCGUGGCCAAGUGGCUGUGGCUACACUGCC [U9C A24C G40C]: 0.03; GGCAGAGCCCAUCACAGCGUGGCAAAUUGGCUGUGGCUAGACUGCC [U9C A12U G27U]: 0.02; GGCAGAGCACAACACAGCGUGGCAAAGUGGCUGUGGCUAAACUGGC [U9A G40A C45G]: 0.09. Next, GGCAGAGCCCUACACAGCGUGUCAAAGUGGCUGUAGCUAGUCUGCC [U9C A11U G22U G35A A41U]: 0.01. Next, GGCAGAGCACAACACAGCGCGGCAAAGUGGCGGUGCCUAGACUGCC [U9A U20C U32G G36C]: 0.02; GGCAGAGCACAACACAGCGUGGCAAAGUGGCUGUGUCUAGAAUGCC [U9A G36U C42A]: 0.08; GGCAGAGCCCAACACAGCGUGGCACAGUGGCUGUGGCUAGAACGCC [U9C A25C C42A U43C]: 0.03. For GGCAGAGCCAAACACAGCGUGGCAAAGUGGCUGUGGCUAGGCUGCC [U9C C10A A41G], the self-cleavage came out at 0.

For GGCAGAGCCCACCACAACGUGGCAAAGUGGCUGUGGCUAGACUGCC [U9C A12C G17A], the self-cleavage came out at 0.02. GGCAGAGCCCACCACAGCGUGGCAAAGUGGCUGUGGCUAGACUGGC [U9C A12C C45G]: the self-cleavage was 0.01.

As for GGCAGAGCCCUACACAGCGUGGCCAAGUGGCUGUGGCAAGACUGCC [U9C A11U A24C U38A], the self-cleavage came out at 0. Next, GGCAGAGCCCAACACAGCGUGGCAUAGUGGCUGUGCCUAGACUGCC [U9C A25U G36C]: 0.01; GGCAGAGCACAACACAGCGUGGCAAAGUGGCCGUAGCUAGACUGCC [U9A U32C G35A]: 0.35. Next, GGCAGAGCCCAACACUGCGUGGCCAAGUGGCUGUGGCUAGACUGCC [U9C A16U A24C]: 0.01; GGCAGAGCCCAACUCAGCGCGGCAAAGUGGCUGUCGCUAGACUGCC [U9C A14U U20C G35C]: 0.1.
